The values that follow come from paper PMC7070046, “Sjögren syndrome/scleroderma autoantigen 1 is a direct Tankyrase binding partner in cancer cells” (Communications Biology, 2020).

By UniProt entry, the sequences of proteins in these tests, tags left out. Where a name states a change or a piece, a line headed by the entry shows the natural chain unless it says otherwise. Residues count along the entry.
UniProt O95271: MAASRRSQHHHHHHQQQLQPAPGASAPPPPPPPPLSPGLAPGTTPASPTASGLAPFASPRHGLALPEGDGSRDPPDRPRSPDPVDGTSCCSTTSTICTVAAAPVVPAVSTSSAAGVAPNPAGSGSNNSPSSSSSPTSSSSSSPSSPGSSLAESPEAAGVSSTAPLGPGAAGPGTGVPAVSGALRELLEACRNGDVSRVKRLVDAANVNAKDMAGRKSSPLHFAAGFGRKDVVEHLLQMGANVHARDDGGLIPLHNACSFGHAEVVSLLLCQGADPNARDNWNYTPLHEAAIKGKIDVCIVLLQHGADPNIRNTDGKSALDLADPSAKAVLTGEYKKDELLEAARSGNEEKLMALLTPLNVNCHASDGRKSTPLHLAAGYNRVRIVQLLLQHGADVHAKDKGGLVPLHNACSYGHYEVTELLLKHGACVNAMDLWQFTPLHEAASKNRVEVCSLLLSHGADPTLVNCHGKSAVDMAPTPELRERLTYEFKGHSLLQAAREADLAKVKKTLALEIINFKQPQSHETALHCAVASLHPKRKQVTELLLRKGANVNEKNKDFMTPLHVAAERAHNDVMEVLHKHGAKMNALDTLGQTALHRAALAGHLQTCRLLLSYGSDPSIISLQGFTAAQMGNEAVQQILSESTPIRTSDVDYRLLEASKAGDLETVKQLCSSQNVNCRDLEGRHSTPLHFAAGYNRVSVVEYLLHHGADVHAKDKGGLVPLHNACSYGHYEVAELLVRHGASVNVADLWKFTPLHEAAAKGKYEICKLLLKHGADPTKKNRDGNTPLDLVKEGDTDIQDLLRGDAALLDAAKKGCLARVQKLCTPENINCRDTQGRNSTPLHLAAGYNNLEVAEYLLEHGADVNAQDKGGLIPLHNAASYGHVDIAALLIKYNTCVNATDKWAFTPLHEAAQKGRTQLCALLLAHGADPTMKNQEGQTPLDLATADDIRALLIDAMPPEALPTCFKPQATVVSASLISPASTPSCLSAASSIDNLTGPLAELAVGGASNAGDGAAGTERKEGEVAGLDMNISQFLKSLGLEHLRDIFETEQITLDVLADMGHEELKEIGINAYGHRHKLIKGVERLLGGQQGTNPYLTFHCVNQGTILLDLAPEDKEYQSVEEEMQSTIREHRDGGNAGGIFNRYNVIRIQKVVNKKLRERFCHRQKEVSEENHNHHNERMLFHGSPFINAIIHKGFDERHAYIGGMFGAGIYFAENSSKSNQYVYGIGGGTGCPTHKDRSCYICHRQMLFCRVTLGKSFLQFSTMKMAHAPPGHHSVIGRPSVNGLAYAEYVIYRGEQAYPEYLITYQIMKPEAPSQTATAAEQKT
TNKS1-Δ(SAM-PARP) (residues 1–975): residues 1-975 of O95271
TNKS1-Δ(ARC4-PARP) (residues 1–634): residues 1-634 of O95271
TNKS1-Δ(ARC3-PARP) (residues 1–502): residues 1-502 of O95271
TNKS1-Δ(ARC2-PARP) (residues 1–331): residues 1-331 of O95271
TNKS1-Δ(ARC1-ARC4) (residues 835–1327): residues 835-1327 of O95271
TNKS1-Δ(ARC1-ARC5) (residues 1014–1327): residues 1014-1327 of O95271

These are yes or no findings as the source states them, for the method shown. Binding seen in cells or lysates may run through a third protein. Some results given as binding are weak or reduced against the parent protein; the word gives no strength. For part of these data: Sequences can lack the tags named with a protein.

Test [1] addresses T1, SSSCA1-ΔZn (residues 85–199) (human) (UniProt O60232).
T1 sequence: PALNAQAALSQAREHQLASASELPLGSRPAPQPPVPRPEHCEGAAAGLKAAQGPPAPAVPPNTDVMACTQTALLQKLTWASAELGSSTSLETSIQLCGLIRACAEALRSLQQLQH
The test is described as follows: co-IP; tandem-affinity purification (His SpinTrap, then GFP-Trap A beads) of His-GFP-tagged SSSCA1 constructs from transfected cells (HeLa; full length also SW480 and LNCaP), endogenous partner detected by western blotting.

The target of test [2] is T2, His-GFP-SSSCA1 (SSSCA1 FL, residues A2-H199) (human) (UniProt O60232).
T2 sequence: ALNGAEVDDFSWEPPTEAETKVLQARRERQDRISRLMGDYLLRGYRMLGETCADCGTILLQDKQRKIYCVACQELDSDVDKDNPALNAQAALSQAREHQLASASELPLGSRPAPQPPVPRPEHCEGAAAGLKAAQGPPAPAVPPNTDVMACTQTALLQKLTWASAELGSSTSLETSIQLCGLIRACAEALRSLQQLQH
Described as above.

The target of test [3] is T3, SSSCA1-H2_(Leu/Ala) (L180A, L183A, I184A, L191A, L194A, L197A) (human) (UniProt O60232).
T3 sequence: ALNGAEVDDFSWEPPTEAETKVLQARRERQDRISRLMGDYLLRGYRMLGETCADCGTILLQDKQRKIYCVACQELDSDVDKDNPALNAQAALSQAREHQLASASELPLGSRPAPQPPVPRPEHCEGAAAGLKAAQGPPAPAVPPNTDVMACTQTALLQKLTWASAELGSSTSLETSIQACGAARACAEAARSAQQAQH
The test is described as above.

The target in test [4] is T4, SSSCA1-Δ(Zn-Pro) (residues 149–199) (human) (UniProt O60232).
T4 sequence: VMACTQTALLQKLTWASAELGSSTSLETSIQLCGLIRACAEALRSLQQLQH
The test is described as above.

Test [5] concerns the target T5, SSSCA1-ΔH2 (residues 2–172) (human) (UniProt O60232).
T5 sequence: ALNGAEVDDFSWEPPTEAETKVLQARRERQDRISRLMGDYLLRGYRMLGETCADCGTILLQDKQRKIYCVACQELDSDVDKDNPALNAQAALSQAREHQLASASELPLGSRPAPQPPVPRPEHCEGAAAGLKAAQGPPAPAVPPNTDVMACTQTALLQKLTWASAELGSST
The test is described as above.

The target in test [6] is T6, SSSCA1-Δ(Pro-H2) (residues 2–84) (human) (UniProt O60232).
T6 sequence: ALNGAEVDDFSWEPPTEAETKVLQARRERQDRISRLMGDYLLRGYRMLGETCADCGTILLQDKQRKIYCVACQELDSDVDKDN
Described as above.

Test [7] deals with T7, SSSCA1-Δ(midPro-H2) (residues 2–111) (human) (UniProt O60232).
T7 sequence: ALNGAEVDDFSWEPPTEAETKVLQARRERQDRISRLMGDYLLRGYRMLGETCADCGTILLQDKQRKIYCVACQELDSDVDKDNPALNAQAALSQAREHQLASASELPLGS
Described as above.

The target of test [8] is T8, SSSCA1-Δ(H1–H2) (residues 2–147) (human) (UniProt O60232).
T8 sequence: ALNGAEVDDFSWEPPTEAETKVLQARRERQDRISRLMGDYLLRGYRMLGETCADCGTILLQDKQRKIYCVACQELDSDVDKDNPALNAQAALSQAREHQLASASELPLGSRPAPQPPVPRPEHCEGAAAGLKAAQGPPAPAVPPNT
Described as above.

Test [9] concerns the target TNKS1-Δ(SAM-PARP) (residues 1–975) (human) (UniProt O95271). The test is described as follows: co-IP; tandem-affinity purification (His SpinTrap, then GFP-Trap A beads) of His-GFP-tagged TNKS1 constructs from transfected HeLa cells, endogenous SSSCA1 detected by western blotting.
Test [10] has as its target TNKS1-Δ(ARC4-PARP) (residues 1–634) (human) (UniProt O95271). Described as above.
Test [11] addresses TNKS1-Δ(ARC1-ARC5) (residues 1014–1327) (human) (UniProt O95271). Described as above.
In test [12] the target is His-GFP-TNKS1 FL (residues 1–1327) (human) (UniProt O95271). Described as above.
Test [13] addresses TNKS1-Δ(ARC3-PARP) (residues 1–502) (human) (UniProt O95271). The description is as above.
Test [14] addresses TNKS1-Δ(ARC1-ARC4) (residues 835–1327) (human) (UniProt O95271). The description is as above.
In test [15] the target is TNKS1-Δ(ARC2-PARP) (residues 1–331) (human) (UniProt O95271). The description is as above.

In the case of “Tankyrase 1 (TNKS1), endogenous (from UniProt O95271 1-1327) (enzyme)”, the binding entry was “binds” in test [1]; “binds” in test [2]; “no binding” in test [3]; “binds” in [4]; “no binding” in [5]; “no binding” in test [6]. The binding result in [7] and in [8] was “no binding” throughout.

B1: SSSCA1, endogenous (protein, UniProt O60232 1-199)
chain: MALNGAEVDDFSWEPPTEAETKVLQARRERQDRISRLMGDYLLRGYRMLGETCADCGTILLQDKQRKIYCVACQELDSDVDKDNPALNAQAALSQAREHQLASASELPLGSRPAPQPPVPRPEHCEGAAAGLKAAQGPPAPAVPPNTDVMACTQTALLQKLTWASAELGSSTSLETSIQLCGLIRACAEALRSLQQLQH
As to B1, the binding entry is “binds” in test [9]; “binds” in test [10]; “no binding” in test [11]; “binds” in [12]; “binds” in test [13]; “no binding” in [14]. For the same molecule, the binding entry in test [15] was “no binding”.
